SMILES strings stand for the structures. Where “and” joins values, the source holds several entries; their conditions need not be identical. Identical values can stand only once.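 How tested: cells in 96-well plates exposed to compound for 48 hours at five concentrations. At the GI50, growth is halved. At the TGI there is no net growth.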 Peptide text beside a SMILES is read from it. * marks the point of attachment. Bn = c1ccc(C*)cc1 Bounds are passed on as bounds.

The assay deals with NCI-H322M lung. Description: growth of human tumour cells (NCI), 48 h.

As for `CN1CCN(c2ccc(Nc3ncc4cc(C#N)c(=O)n(C5CCCC5)c4n3)cc2)CC1`, the GI50 is 1.57 µM and the TGI was greater than 100 µM.

Regarding `COC(=O)[C@H](C)NC(=O)[C@H](CSC)N1C(=O)N[C@@H](C(C)C)C1=O`, the TGI was greater than 100 µM.

Turning to `O=C(NO)c1ccc(CN(c2cnccn2)c2cnccn2)cc1`, the GI50 was 21.3 µM and the TGI turned out to be 92.5 µM.

As to `[F][Sn]([F])([c]1ccccc1)[c]1ccccc1`, the GI50 was 1.75 µM and the TGI was determined as 3.56 µM.

Consider `Oc1ccc(Br)cc1C=Nc1ccc(N=Cc2cc(Br)ccc2O)cc1`, for which the TGI is greater than 100 µM.

As for `C=C1CC[C@@H](C(C)C)C[C@@H]2[C@H]([C@H](O)C[C@]2(C)O)[C@@]2(C)CC[C@@H]1O2`, the GI50 was 19.4 µM and the TGI was determined as 35 µM.

Compound `Cc1ccc(-c2c(C#N)c(-c3ccc([N+](=O)[O-])cc3)c(C#N)c(=O)n2NS(=O)(=O)c2ccccc2)cc1` came in with a TGI greater than 100 µM.

As for `O=C(OCC(OC(=O)c1ccccc1)C(OC(=O)c1ccccc1)C(OC(=O)c1ccccc1)c1cnn(-c2ccccc2)n1)c1ccccc1` (centres undefined), the TGI was greater than 100 µM.

In the case of `S=C1SC2=Nc3ccccc3CN2C2=NCCN12`, the GI50 was greater than 100 µM and the TGI is greater than 100 µM.

In turn, `COC(=O)C(CC(C)C)NC(=O)C(N)Cc1ccc(OCc2ccccc2)cc1` (centres undefined) (H-Tyr(Bn)-Leu-OMe; configuration not given here) displayed a TGI greater than 10 µM.

As for `C=CCn1c2c(sc1=S)C(S)N=CN2` (centres undefined), the TGI was greater than 100 µM.

Consider `Nc1nc(N)c2cc(CNc3ccc(C(=O)NC(CC(=O)O)C(=O)O)c(Cl)c3)ccc2n1` (centres undefined), for which the GI50 is 0.07 µM and the TGI is greater than 500 µM.

`Cc1cccc(N=C2NC(=O)C(CC(=O)Nc3cccc(C)c3C)S2)c1` (centres undefined) showed a TGI greater than 100 µM.

Regarding `Clc1ccc(Cl)c(SCCCN2CCNCC2)c1`, the TGI came to 35.5 µM.

Compound `COC(=O)C1=C(O)C(C(=O)OC)[C@@]2(O)[C@@H](C(=O)OC)[C@H](C)[C@@H](C)[C@@H]1[C@@H]2C(=O)OC` (some centres undefined) returned a TGI greater than 100 µM.

In turn, `CC(C)(C)C(=O)C(Cc1ccccc1)C(=O)C(C)(C)C` returned a TGI greater than 100 µM.

On to `CC1=C(C(=O)Nc2ccccc2)C(c2ccc(C3C(C(=O)Nc4ccccc4)=C(C)NC(C)=C3C(=O)Nc3ccccc3)cc2)C(C(=O)Nc2ccccc2)=C(C)N1`, for which the TGI was 20.2 µM.

Turning to `Cc1cccc(C)c1NC(=O)C(=O)CC(=O)c1cccc([N+](=O)[O-])c1`, the TGI was greater than 100 µM.

Compound `O=C(CCCN1CCC2(CC1)C(=NC1CCCCC1)NC(=O)N2c1ccccc1)c1ccc(F)cc1` returned a TGI of 50.9 µM.

Compound `O=C(O)CN(c1ccccc1)S(=O)(=O)c1ccc([N+](=O)[O-])cc1` returned a TGI greater than 100 µM.

For `COc1cc(C2C(C(=O)Nc3cc(F)c(F)cc3F)=C(C)NC(C)=C2C(=O)Nc2cc(F)c(F)cc2F)ccc1O`, the TGI is 90.9 µM.

Take `COC1=C(Br)C(=O)c2nc(C)ccc2C1=O`: the TGI turned out to be 54 µM.

`OCCNCCOc1ccc(/C(=C(/Cl)c2ccccc2)c2ccccc2)cc1` yielded a TGI of 24.9 µM.

Consider `Cc1cn2c(C)csc2c1P(=O)(OC(C)C)OC(C)C`, for which the TGI was greater than 100 µM.

`Cc1ccc(S(=O)(=O)NC(=O)NNc2ccc(F)cc2)cc1` had a TGI greater than 100 µM.

For `C=C(C)[C@@]1(O[Si](C)(C)C)CCCC[C@@H]1CC(Sc1ccccc1)Sc1ccccc1`, the TGI is 33 µM.

`Cc1ccc(S(=O)(=O)NC(=O)NC2=NC(C)(C)N(c3ccc(Cl)c(Cl)c3)C(N)=N2)cc1`: the TGI is greater than 100 µM.

In turn, `O=C(O)c1c2c(cc3c1CC1(Cc4ccccc4C1=O)C3)CCC2` (centres undefined) yielded a TGI greater than 100 µM.

Take `CCc1nc2cc3cccnc3c(Cl)c2[nH]c1=O`: the TGI was greater than 100 µM.

With `O=C(Nc1ccc(-n2cc(-c3ccncc3)c(-c3ccc(O)c(Cl)c3)n2)cc1)Nc1cccc(Cl)c1Cl`, the GI50 was 16.8 µM and the TGI is greater than 32.5 µM.

For the compound `CC(C)C1=C2CCC3(C)C(CCC4C5C6OCC5(CCC6(C)C)CCC43C)C2(C)CC1` (centres undefined), the TGI was greater than 100 µM.

As for `CCCCN(CCCC)C(=C(C(Cl)=C(Cl)Cl)[N+](=O)[O-])N(CCCC)CCCC`, the TGI is greater than 100 µM.

On to `COC(=O)C1=C(C)NC(C)=C([N+](=O)[O-])C1c1cccc(N=O)c1` (centres undefined), for which the TGI was greater than 100 µM.

Consider `COC(=O)c1cc2c(cc1CC(Cc1ccc3c(c1)CCC3)C(=O)OC)CCC2` (centres undefined), for which the TGI was greater than 100 µM.

For `Cn1cc(-c2ccc(-c3cncc(Cl)c3N3CCC4(CCNC4=O)CC3)cc2)cn1`, the GI50 was greater than 100 µM and the TGI was greater than 100 µM.

`CC1=C(C(=O)NNS(=O)(=O)c2ccc(C)cc2)CC(C(=O)NNS(=O)(=O)c2ccc(C)cc2)=C(C)N1` returned a TGI greater than 100 µM.

`COc1ccc2c3c(Nc4ccc(/C(C)=N/O)cc4)[nH]c4ccccc4c-3c(N=O)c2c1`: the GI50 is 2.26 µM and the TGI stood at 5.46 µM.

In turn, `CC12CC1C(c1cccc([N+](=O)[O-])c1)(c1cccc([N+](=O)[O-])c1)N=N2` (centres undefined) had a TGI greater than 100 µM.

Compound `O/C(=C\c1nc2ccccc2nc1NC12CC3CC(CC(C3)C1)C2)c1ccc(Br)cc1` yielded a TGI greater than 10 µM.

Compound `S=C1CC(c2ccccc2)Sc2ccc(Cl)cc2N1` (centres undefined) yielded a TGI greater than 100 µM.

Consider `COc1ccc(Cc2cnc(NC(=O)c3ccc4c(c3)OCCO4)s2)cc1`, for which the GI50 is 0.0721 µM and the TGI was determined as 98 µM.

As to `O=C(CSC(c1ccccc1)c1ccccc1)N/N=C/c1ccco1`, the GI50 was 2.21 µM and the TGI is greater than 8.82 µM.

Turning to `Cc1cc2nc(-c3cc(C(C)(C)C)c(O)c(C(C)(C)C)c3)[nH]c2cc1C`, the TGI was greater than 100 µM.

The compound `Cc1c2ccncc2c(C)c2c1[nH]c1ccccc12` gave a TGI of 2.4 µM.

Turning to `O=c1oc2ccc(Br)cc2c(=O)n1-c1ccc(F)cc1F`, the GI50 was 2.32 µM and the TGI was greater than 100 µM.

`O=S1(=O)OCCOS(=O)(=O)C1Cl` displayed a TGI greater than 100 µM.

Take `CC1C(c2ccc3c(c2)OCO3)c2cc3c(cc2OC1N1CCOCC1)OCO3` (centres undefined): the TGI is greater than 100 µM.

`CN1COCc2cc3cc4c(cc3nc21)OCCO4` came in with a TGI greater than 100 µM.

Turning to `CO/N=C(/C)c1cccc(Nc2cc(-c3ccccc3)nc3ccc(OC)cc23)c1`, the GI50 is 3.24 µM and the TGI is 14.7 µM.

`O=[N+]([O-])c1ccc(C2=Nc3ccccc3SC(c3ccccc3)C2)cc1` (centres undefined) came in with a TGI greater than 100 µM.

`N#CC(=N)c1ncn(-c2ccccc2N)c1N` registered a TGI greater than 100 µM.

On to `CCOC(=O)[C@@H]1ON2O[C@@H](OC3CCCC3(c3ccccc3)c3ccccc3)C[C@H]3OC(=O)[C@@H]1C32` (some centres undefined), for which the TGI was greater than 100 µM.

As to `CCN(CC)CCNC(=O)c1ccc(C)c(OCc2ccccc2)c1[N+](=O)[O-]`, the TGI is greater than 88.8 µM.

Consider `COC(=O)c1cc(/C=C/c2ccc(S(N)(=O)=O)cc2)ccc1O`, for which the GI50 is 74.1 µM and the TGI is greater than 100 µM.

As for `CC/C=C/C/C=C/C/C=C/C/C=C/C/C=C/C/C=C/CCC(=O)Nc1ccn([C@@H]2O[C@H](CO)[C@@H](O)C2(F)F)c(=O)n1`, the GI50 is 2.72 µM and the TGI came to 25.6 µM.

In the case of `O=C1c2cccc(NCCNCCO)c2C(=O)c2cccc(NCCNCCO)c21`, the TGI was 2.78 µM.

As to `CCCCc1c2c(nc3c1CCC/C3=C\c1ccccc1)/C(=C/c1ccccc1)CCC2`, the TGI is greater than 100 µM.

`CCCCC/C(C=O)=C\c1ccccc1` gave a TGI greater than 100 µM.

As for `COC(=O)C1(Cc2ccc3c(c2)CCC3)Cc2ccccc2C1=O` (centres undefined), the TGI is greater than 100 µM.

`CCCCC#CS(=O)(=O)C(F)(F)F` gave a TGI greater than 100 µM.

`CC(C(=O)n1c2ccccc2c2ccccc21)N(c1ccccc1)c1ccccc1` (centres undefined) yielded a TGI of 31.5 µM.

Compound `CC(O)CC(O)(C(F)(F)F)C(F)(F)F` (centres undefined) displayed a TGI greater than 10 µM.

Turning to `O=C(N/N=C/c1ccc([N+](=O)[O-])o1)c1ccc(O)cc1`, the GI50 is 8.62 µM and the TGI is greater than 100 µM.

Turning to `O=C(O)c1ccc2c(c1)CC1(C2)Cc2cc3c(cc2C1=O)CCC3` (centres undefined), the TGI is greater than 100 µM.

Compound `CC(=O)OCCOCNC(=S)N/N=C/c1ccc(Br)s1` yielded a TGI greater than 100 µM.

Compound `COc1ccc(N=Nc2c3c(c(O)c4ccccc24)CCC(C)(C)O3)cc1` had a TGI of 93.7 µM.

In turn, `N#CC(C(=O)CCC(=O)Nc1cccc(C(F)(F)F)c1)c1ccc(Cl)cc1` (centres undefined) registered a TGI greater than 100 µM.

The compound `CC1=CC(=O)CC2(C)CCC(C(C)CC(=O)CC(C)C)CC12` (centres undefined) returned a TGI greater than 100 µM.

For the compound `CCCCCc1ccc(S(=O)(=O)Nc2cc(-c3csc(NC(C)=O)n3)ccc2N2CCN(C)CC2)cc1`, the GI50 is 5.48 µM and the TGI is 10.1 µM.

`COc1cc(C(=O)C/C(CCC(=O)Nc2ccc(Cl)cc2Cl)=N/NC(=O)C(=O)NN)ccc1O` yielded a TGI greater than 100 µM.

As to `OCC(O)CNc1ccnc2cc(Cl)ccc12` (centres undefined), the TGI was greater than 100 µM.

Compound `COc1cc2c(c(O)c1O)-c1ccc(OC)c(=O)cc1C(NC(C)=O)CC2` (centres undefined) showed a TGI greater than 87.1 µM.

In turn, `COc1cc(C=C2C(=O)NC(=S)NC2=O)cc(OC)c1OC` returned a TGI greater than 100 µM.

In turn, `COc1c(O)c(O)cc2c1-c1ccc(OC)c(=O)cc1C(NC(C)=O)CC2` (centres undefined) came in with a TGI of 49.8 µM.

Compound `O=C1CC(Sc2nc3ccc(I)cc3c(=O)n2Cc2ccccc2)C(=O)NN1` (centres undefined) showed a TGI greater than 100 µM.

`COC(=O)C1(Cc2ccc3c(c2)CCC3)Cc2cc3c(cc2C1)CCC3` came in with a TGI greater than 100 µM.

For `CCOC(=O)/C(=C/c1cccc(C#N)c1)N(CC)CC`, the TGI was greater than 100 µM.

For the compound `CC/C(Cl)=N\OC(=O)Nc1ccc(F)c([N+](=O)[O-])c1`, the TGI is greater than 62.4 µM.

Consider `CC(C)(C)OC(=O)N1N=NC2C1C1CC(OCc3ccccc3)(OCc3ccccc3)C2O1` (centres undefined), for which the TGI is greater than 100 µM.

In turn, `c1ccc(-c2cnc(-c3ccc(-c4ncc(-c5ccccc5)o4)cc3)o2)cc1` came in with a TGI greater than 100 µM.

In the case of `O=c1[nH]c(=O)n([C@H]2CCCO2)cc1F`, the GI50 is 948 µM and > 5000 µM; the TGI was greater than 5000 µM.

As for `O=C(O)CSC(NC(=O)C(C(F)(F)F)C(F)(F)F)(C(F)(F)F)C(F)(F)F`, the TGI was greater than 100 µM.

In the case of `COc1ccc(N=C2C(=S)N(c3ccc(OC)cc3)/C(=N/S(=O)(=O)c3ccccc3)N2c2ccccc2)cc1`, the TGI was greater than 100 µM.

With `COC(=O)c1cc(C)ccc1CC(Cc1ccc(C)cc1)C(=O)OC` (centres undefined), the TGI is greater than 100 µM.

In turn, `C=C1C(=O)OC2/C=C(/C)C3(O)OC(C)(CC(OC(=O)C(C)C)C12)CC3OC(C)=O` (centres undefined) returned a TGI greater than 100 µM.

Compound `CCCOC(=O)NC(C)C(=O)NC(CCC(=O)NC(CCCC(N)C(=O)O)C(=O)NC(C)C(=O)O)C(=O)O` (centres undefined) yielded a TGI of 43.7 µM.

Source of the values: PubChem BioAssay (NCI).
